# Measured values: the supplement of paper PMC8728848
# The list shows a part of the results.
# Columns and labels:
# Assay in all cases: glycan array binding signal (z-score within array); higher = stronger binding
# Conditions in all cases: glycan notation: IUPAC condensed, linker removed
# [1] = molecular target: Neu5Ac(a2-8)Neu5Ac
# Method in brief: (§1)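 Arrays were curated from the Consortium for Functional Glycomics database, 3228 in total, and kept only where the protein sequence was available. Binding is expressed as a within-array Z-score. This score was averaged across arrays of the same protein sequence at different concentrations or buffers and across linkers, and negative values can be read as non-binding.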
# [2] = molecular target: Neu5Ac(a2-8)Neu5Ac(a2-3)Gal(b1-3)GalNAc(b1-4)[Neu5Ac(a2-3)]Gal(b1-4)Glc
# Method in brief: as §1
# [3] = molecular target: Neu5Ac(a2-8)Neu5Ac(a2-3)Gal(b1-3)GalNAc(b1-4)[Neu5Ac(a2-8)Neu5Ac(a2-3)]Gal(b1-4)Glc
# Method in brief: as §1
# [4] = molecular target: Neu5Ac(a2-8)Neu5Ac(a2-3)Gal(b1-4)Glc
# Method in brief: as §1
# [5] = molecular target: Neu5Ac(a2-8)Neu5Ac(a2-3)Gal(b1-4)GlcNAc
# Method in brief: as §1
# [6] = molecular target: Neu5Ac(a2-8)Neu5Ac(a2-3)[Gal(b1-3)GalNAc(b1-4)]Gal(b1-4)Glc
# Method in brief: as §1
# [7] = molecular target: Neu5Ac(a2-8)Neu5Ac(a2-3)[GalNAc(b1-4)]Gal(b1-4)Glc
# Method in brief: as §1
# [8] = molecular target: Neu5Ac(a2-8)Neu5Ac(a2-8)Neu5Ac
# Method in brief: as §1
# [9] = molecular target: Neu5Ac(a2-8)Neu5Ac(a2-8)Neu5Ac(a2-3)Gal(b1-4)Glc
# Method in brief: as §1
# [10] = molecular target: Neu5Ac(a2-8)Neu5Ac(a2-8)Neu5Ac(a2-3)[Gal(b1-3)GalNAc(b1-4)]Gal(b1-4)Glc
# Method in brief: as §1
# [11] = molecular target: Neu5Ac(a2-8)Neu5Ac(a2-8)Neu5Ac(a2-3)[GalNAc(b1-4)]Gal(b1-4)Glc
# Method in brief: as §1
# [12] = molecular target: Neu5Ac(a2-8)Neu5Ac(a2-8)Neu5Ac(a2-8)Neu5Ac(a2-3)[GalNAc(b1-4)]Gal(b1-4)Glc
# Method in brief: as §1
# [13] = molecular target: Neu5Ac(a2-8)Neu5Gc(a2-3)Gal(b1-4)GlcNAc
# Method in brief: as §1
# [14] = molecular target: Neu5Ac(b2-6)Gal(b1-4)GlcNAc
# Method in brief: as §1
# [15] = molecular target: Neu5Ac(b2-6)GalNAc
# Method in brief: as §1
# [16] = molecular target: Neu5Ac9Ac(a2-3)Gal(b1-3)GlcNAc
# Method in brief: as §1
# [17] = molecular target: Neu5Ac9Ac(a2-3)Gal(b1-4)GlcNAc
# Method in brief: as §1
# [18] = molecular target: Neu5Ac9Ac(a2-6)Gal(b1-4)GlcNAc
# Method in brief: as §1
# [19] = molecular target: Neu5Gc(a2-3)Gal(b1-3)GlcNAc
# Method in brief: as §1
# [20] = molecular target: Neu5Gc(a2-3)Gal(b1-3)[Fuc(a1-4)]GlcNAc
# Method in brief: as §1
# [21] = molecular target: Neu5Gc(a2-3)Gal(b1-4)Glc
# Method in brief: as §1
# [22] = molecular target: Neu5Gc(a2-3)Gal(b1-4)GlcNAc
# Method in brief: as §1
# [23] = molecular target: Neu5Gc(a2-3)Gal(b1-4)GlcNAc(b1-3)Gal(b1-4)GlcNAc(b1-2)Man(a1-3)[Neu5Gc(a2-3)Gal(b1-4)GlcNAc(b1-3)Gal(b1-4)GlcNAc(b1-2)Man(a1-6)]Man(b1-4)GlcNAc(b1-4)GlcNAc
# Method in brief: as §1
# [24] = molecular target: Neu5Gc(a2-3)Gal(b1-4)[Fuc(a1-3)]GlcNAc
# Method in brief: as §1
# [25] = molecular target: Neu5Gc(a2-6)Gal(b1-4)GlcNAc
# Method in brief: as §1
# [26] = molecular target: Neu5Gc(a2-6)GalNAc
# Method in brief: as §1
# [27] = molecular target: Neu5Gc(a2-8)Neu5Ac(a2-3)Gal(b1-4)GlcNAc
# Method in brief: as §1
# [28] = molecular target: Neu5Gc(a2-8)Neu5Gc(a2-3)Gal(b1-4)GlcNAc
# Method in brief: as §1
# [29] = molecular target: Neu5Gc(a2-8)Neu5Gc(a2-3)Gal(b1-4)GlcNAc(b1-3)Gal(b1-4)GlcNAc
# Method in brief: as §1
# [30] = molecular target: Neu5Gc(a2-8)Neu5Gc(a2-6)Gal(b1-4)GlcNAc
# Method in brief: as §1
# [31] = molecular target: Neu5Gc(b2-6)Gal(b1-4)GlcNAc
# Method in brief: as §1
binder,measurement,setting,value
"MSMEG3662-2a (Mycobacterium smegmatis), A0QYH7_MYCS2 (protein) MGDTLTAGQKLERGGSLQSGNGAYTLTLQDDGNLVLYARDKAVWSTGTNGQDVVRAEVQTDGNFVLYTAEKPVWHTDTKGKKEVKLVLQDDRNLVLYAKDGPAWSSKTDTTEPPPPAPEPEKEAEVAPAAAEEAAPAPVAEPAPAEPAPAAPPPAPPAPRTYTVVSGDTLWAIAERFYGDGSKYQQIADASGIANPDLIHPGQVLTIP",glycan array binding signal (z-score),[1],-0.128
same,glycan array binding signal (z-score),[2],-0.195
same,glycan array binding signal (z-score),[3],0.097
same,glycan array binding signal (z-score),[4],-0.086
same,glycan array binding signal (z-score),[5],-0.085
same,glycan array binding signal (z-score),[6],-0.055
same,glycan array binding signal (z-score),[7],-0.084
same,glycan array binding signal (z-score),[8],-0.147
same,glycan array binding signal (z-score),[9],-0.07
same,glycan array binding signal (z-score),[10],-0.176
same,glycan array binding signal (z-score),[11],-0.078
same,glycan array binding signal (z-score),[12],-0.17
same,glycan array binding signal (z-score),[13],0.105
same,glycan array binding signal (z-score),[14],-0.019
same,glycan array binding signal (z-score),[15],-0.023
same,glycan array binding signal (z-score),[16],-0.178
same,glycan array binding signal (z-score),[17],-0.051
same,glycan array binding signal (z-score),[18],-0.225
same,glycan array binding signal (z-score),[19],-0.187
same,glycan array binding signal (z-score),[20],-0.18
same,glycan array binding signal (z-score),[21],-0.093
same,glycan array binding signal (z-score),[22],-0.059
same,glycan array binding signal (z-score),[23],0.118
same,glycan array binding signal (z-score),[24],0.023
same,glycan array binding signal (z-score),[25],-0.02
same,glycan array binding signal (z-score),[26],-0.074
same,glycan array binding signal (z-score),[27],-0.087
same,glycan array binding signal (z-score),[28],-0.11
same,glycan array binding signal (z-score),[29],-0.195
same,glycan array binding signal (z-score),[30],-0.118
same,glycan array binding signal (z-score),[31],-0.051
